Experimental data reported in US20240247043A1 (WUHAN YZY BIOPHARMA, published 2024).
Residue numbers refer to the chain shown, from its start. Names and notes keep the numbering of the source. One block for each binder: values may come before it.

Experiments:
[1] = biological target: T1, human FGL1-His antigen (ACRO, FG1-H52Hy) (human, UniProt Q08830 23-312); test: Biacore SPR, antigen amine-coupled on CM5 chip, 1:1 fit
T1 construct: Bought His-tagged protein; also called hFGL1; hFGL1 antigen
T1 sequence (looked up): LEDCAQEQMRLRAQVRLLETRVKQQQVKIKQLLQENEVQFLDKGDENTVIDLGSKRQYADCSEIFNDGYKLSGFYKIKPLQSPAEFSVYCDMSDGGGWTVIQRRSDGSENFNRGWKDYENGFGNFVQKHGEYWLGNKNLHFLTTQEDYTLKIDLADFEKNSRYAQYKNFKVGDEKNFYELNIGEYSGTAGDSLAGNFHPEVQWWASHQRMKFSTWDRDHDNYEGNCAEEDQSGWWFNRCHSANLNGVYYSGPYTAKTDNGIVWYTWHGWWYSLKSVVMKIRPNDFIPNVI

[2] = biological target: T1, human FGL1-His antigen (ACRO, FG1-H52Hy); test: ELISA as in Example 3: construct coated, serially diluted human FGL1 added, OD450

binding result [2]: binds
B3: LAG-3 D1-D2-D3-D4-Fc mutant A7850 (P195A) (Fc fusion)
chain: LQPGAEVPVVWAQEGAPAQLPCSPTIPLQDLSLLRRAGVTWQHQPDSGPPAAAPGHPLAPGPHPAAPSSWGPRPRRYTVLSVGPGGLRSGRLPLQPRVQLDERGRQRGDFSLWLRPARRADAGEYRAAVHLRDRALSCRLRLRLGQASMTASPPGSLRASDWVILNCSFSRPDRPASVHWFRNRGQGRVPVRESAHHHLAESFLFLPQVSPMDSGPWGCILTYRDGFNVSIMYNLTVLGLEPPTPLTVYAGAGSRVGLPCRLPAGVGTRSFLTAKWTPPGGGPDLLVTGDNGDFTLRLEDVSQAQAGTYTCHIHLQEQQLNATVTLAIITVTPKSFGSPGSLGKLLCEVTPVSGQERFVWSSLDTPSQRSFSGPWLEAQEAQLLSQPWQCQLYQGERLLGAAVYFTELSSPGDDDDKGSGSG[human IgG1 Fc omitted here]
notes: D2 entry already carries P195A

binding result [2]: binds
B4: LAG-3 D1-D2-D3-D4-Fc mutant A7820 (E201G) (Fc fusion)
chain: B3 chain with A195P, E201G
notes: D2 entry already carries E201G

binding result [2]: binds
B5: LAG-3 D1-D2-D3-D4-Fc mutant A7848 (N183A) (Fc fusion)
chain: B3 chain with N183A, A195P
notes: D2 entry already carries N183A

Continued, binder first:

B1: IMP321 (LAG-3 D1-D2-D3-D4-Fc wild type) (Fc fusion)
chain: B3 chain with A195P
notes: also called IMP321 wild type; IP321-PE
Kd [1]: 8.43 nM

B2: LAG-3 D1-D2-D3-D4-Fc mutant A7817 (E201D) (Fc fusion)
chain: B3 chain with A195P, E201D
notes: D2 entry already carries E201D
binding result [2]: binds
